Screen size: about 310,000 compounds; about 14,000 (4.5%) showed an effect of 50% or more. The effect is printed as a negative number. This is one part of the list.
These compounds were tested against human ether-à-go-go-related gene (hERG) potassium channel (human, UniProt Q12809) (assay: primary screen, population patch clamp on CHO cells stably expressing hERG).
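Note: peak tail current of the secondary pulse compared with the same well before compound.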

Chain of human ether-à-go-go-related gene (hERG) potassium channel (Q12809 whole entry, looked up): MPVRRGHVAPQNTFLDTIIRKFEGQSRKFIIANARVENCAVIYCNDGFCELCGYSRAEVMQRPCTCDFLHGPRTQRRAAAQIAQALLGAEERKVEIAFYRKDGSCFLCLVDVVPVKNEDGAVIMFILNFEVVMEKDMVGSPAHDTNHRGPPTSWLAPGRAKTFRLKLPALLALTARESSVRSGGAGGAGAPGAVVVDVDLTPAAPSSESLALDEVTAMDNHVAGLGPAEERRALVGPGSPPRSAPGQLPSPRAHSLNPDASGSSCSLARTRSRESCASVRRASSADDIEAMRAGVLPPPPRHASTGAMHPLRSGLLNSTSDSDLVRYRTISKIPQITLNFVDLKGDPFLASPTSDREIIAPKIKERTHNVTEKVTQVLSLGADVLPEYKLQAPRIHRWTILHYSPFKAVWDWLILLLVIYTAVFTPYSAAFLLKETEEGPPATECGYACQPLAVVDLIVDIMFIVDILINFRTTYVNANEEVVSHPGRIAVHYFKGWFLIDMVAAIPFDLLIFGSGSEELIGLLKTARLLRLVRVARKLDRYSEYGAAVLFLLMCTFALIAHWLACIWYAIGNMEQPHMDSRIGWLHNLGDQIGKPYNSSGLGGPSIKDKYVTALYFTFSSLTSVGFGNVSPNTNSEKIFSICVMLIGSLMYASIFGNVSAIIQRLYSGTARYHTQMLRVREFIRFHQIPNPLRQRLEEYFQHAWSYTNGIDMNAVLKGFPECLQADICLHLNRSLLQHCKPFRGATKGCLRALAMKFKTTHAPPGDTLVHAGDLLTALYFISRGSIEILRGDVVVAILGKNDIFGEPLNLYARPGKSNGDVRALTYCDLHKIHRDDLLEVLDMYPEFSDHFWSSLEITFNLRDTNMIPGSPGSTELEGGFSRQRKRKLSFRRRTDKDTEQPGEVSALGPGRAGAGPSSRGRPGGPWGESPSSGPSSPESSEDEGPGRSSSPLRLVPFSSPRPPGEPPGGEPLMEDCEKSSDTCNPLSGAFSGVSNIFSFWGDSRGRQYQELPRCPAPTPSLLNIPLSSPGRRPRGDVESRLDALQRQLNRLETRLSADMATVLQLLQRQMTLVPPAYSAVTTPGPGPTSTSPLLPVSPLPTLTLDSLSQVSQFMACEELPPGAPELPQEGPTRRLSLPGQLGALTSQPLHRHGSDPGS

Row | SMILES | hERG current change (%, negative = inhibition) at 10uM
1 | CC1(C)CC(=NNC(=O)c2n[nH]c3c2CCC3)CC(C)(C)N1 | 11.5%
2 | CCOc1ccc(CCNc2nc3ccccc3n3c(C)nnc23)cc1OCC | 12.3%
3 | N#Cc1ccc(OCCN2CCc3ccccc3C2)cc1 | -45.2%
4 | COc1ccc(OC)c(S(=O)(=O)Nc2ccc(CC(=O)O)cc2)c1 | -1.5%
5 | CCCOC(=O)c1c(-c2ccccc2)nc(CC)c(C(=O)SCC)c1CCC | 20.7%
6 | O=C(CSc1nc2ccccc2c(=O)n1-c1ccc(F)cc1)Nc1ccc(C(=O)O)cc1 | 0.205%
7 | CCOC(=O)c1nc(NCc2cccnc2)c2ccccc2n1 | -15.3%
8 | O=C(COC(=O)c1cc([N+](=O)[O-])ccc1N1CCOCC1)c1ccc(OC(F)F)cc1OC(F)F | -3.18%
9 | Cc1cc(C(=O)Nc2ccc(S(=O)(=O)N3CCCC3)cc2)no1 | 23.6%
10 | Cc1ccc(/C=N/NC(=O)c2c(C)nc3ccc(Br)cn23)cc1 | 19.2%
11 | Oc1ccc(Cl)cc1-c1cc(-c2ccco2)[nH]n1 | 16.2%
12 | O=C(/C=C/c1ccccc1)C1=C(O)C(=O)N(CCO)C1c1ccc2c(c1)OCO2 (stereo not drawn) | 5.2%
13 | COc1ccc(S(=O)(=O)N/N=C(/C)c2ccc(Cl)cc2)cc1 | 7.01%
14 | Cc1ccc(/C=C/C(=O)c2ccc(N3CCOCC3)cc2)s1 | 10.5%
15 | Cc1ccc(Cl)cc1N1CCN(C(=O)C2CCCN(S(=O)(=O)c3cnc[nH]3)C2)CC1 (stereo not drawn) | -11.3%
16 | CCCNC(=O)Cn1nc(C(F)(F)F)c2c1CCCC2 | 9.29%
17 | C=C1C(C(=O)N2CCOCC2)C1C(=O)N1CCOCC1 (stereo not drawn) | 5.16%
18 | COc1ccc(CCN2C(=O)CC(Cc3ccc(Br)cc3)C2=O)cc1OC (stereo not drawn) | -37.7%
19 | Cc1ccc(S(=O)(=O)N(C)c2ccc3sc(C)nc3c2)cc1 | -48.6%

Row | SMILES | hERG current change (%, negative = inhibition) at 10uM
20 | Cc1ccc2nc(NC(=O)c3ccc(NS(=O)(=O)c4cccs4)cc3)sc2c1 | 6.32%
21 | CCN(c1ccccc1)S(=O)(=O)c1cccc(C(=O)N(C)CCOc2ccccc2)c1 | -3.95%
22 | CS(=O)(=O)Nc1ccc(C(=O)Nc2ccc3ccccc3c2)cc1 | 11.2%
23 | COc1ccc(-c2[nH]ncc2CN2CCCCCCC2)c(OC)c1 | -54.7%
24 | Cn1c(CNC(=O)CNC(=O)c2ccc(F)cc2)cc(=O)n(C)c1=O | -8.46%
25 | Br.N=C1CCCN1CC(=O)c1cccs1 | -17.1%
26 | CC(C)c1nnc(NC(=O)CCC(=O)NCc2ccc(F)cc2)s1 | 21.3%
27 | CC(C)Oc1ccc(/C(O)=C2/C(=O)C(=O)N(CCN3CCNCC3)C2c2ccc(C(C)C)cc2)cc1 (stereo not drawn) | 25.3%
28 | C=CCn1c(SCC(=O)Nc2cccnc2Cl)nnc1-c1ccc(C(C)(C)C)cc1 | -31.7%
29 | O=C(Cc1ccccc1)NNc1ccc2ccccc2c1 | 1.32%
30 | Cn1c(-c2cccc3ccccc23)n[nH]c1=S | 21.9%
31 | CCc1ccc(C2=NN(CCC(=O)NC(C)CCc3ccccc3)C(=O)CC2)cc1 (stereo not drawn) | -27.9%
32 | COC(=O)c1ccc(Cn2cc([N+](=O)[O-])cn2)cc1 | -2.83%
33 | Cc1ccccc1Nc1nnc(SCc2nc3ccccc3c(=O)[nH]2)s1 | 8.75%
34 | COc1ccc(CC(=O)Nc2cccc(-c3cn4ccccc4n3)c2)cc1 | -18.1%
35 | COc1cccc(-c2noc(CCCC(=O)N3CCOCC3)n2)c1 | -5.72%
36 | COc1ccc(C2SCCN2C(=S)Nc2cccc(C(F)(F)F)c2)cc1 (stereo not drawn) | 10.9%
37 | O=C(O)CCNS(=O)(=O)c1ccccc1 | -2.72%
38 | Cc1ccccc1OCCC(=O)Nc1c(C)n(C)n(-c2ccccc2)c1=O | -14.1%

Row | SMILES | hERG current change (%, negative = inhibition) at 10uM
39 | CCCNC(=O)c1cccc(Cn2nc(C)c(Br)c2C)c1 | -6.12%
40 | Cc1ccc(C(C(=O)NCC2CCCO2)N(C(=O)c2snc(C(N)=O)c2N)c2ccccc2F)o1 (stereo not drawn) | -12.9%
41 | COc1ccc(Cn2c(=N)c(C(=O)NC3CCCCC3)cc3c(=O)n4ccccc4nc32)cc1 | -68.9%
42 | CCN(CC)S(=O)(=O)c1cc(C(=O)OCC(=O)NC(=O)c2cccn2C)ccc1C | -4.56%
43 | COc1ccc(C(=O)CSc2nnc(CCc3ccccc3)n2-c2ccccc2)cc1 | -7.8%
44 | Cc1ccc(S(=O)(=O)Nc2ccc(N3CCCCC3)cc2)cc1 | -0.401%
45 | C=CCC(NC(=O)Cc1ccccc1)C(=O)NCCC (stereo not drawn) | 21.3%
46 | CCOCCN(C(=O)COC)c1cccc(OC)c1 | -7.45%
47 | CCN1CCN(Cc2cccnc2)CC1 | 17.1%
48 | COc1cc2c(cc1[N+](=O)[O-])n(C(C)C)c(=O)n2C(C)C | -40.3%
49 | CCn1c(=O)cc(OCC(=O)Nc2ccc3c(c2)OCCO3)c2ccccc21 | 10.7%
50 | COc1ccccc1NC(=O)Nc1ccc2c(c1)OCCO2 | 22.2%
51 | COc1cccc(NP(=O)(Oc2ccccc2Cl)Oc2ccccc2Cl)c1 | 1.5%
52 | Cc1ccc(NS(=O)(=O)c2ccc(CCC(=O)N3CCOCC3)cc2)cc1 | -12.9%
53 | COc1ccc(Nc2nc(C)cc(C)c2C(N)=O)cc1 | -0.439%
54 | CCOC(=O)c1[nH]c(C)c(C(=O)Nc2ccc(C)c(Cl)c2)c1C | 17.9%
55 | Cc1ccc(C)n1-n1c(C)nc2sc3c(c2c1=O)CCCCC3 | -7.15%
56 | Cc1cc(NC(=O)Nc2ccccc2[N+](=O)[O-])no1 | 7.56%
57 | COC(=O)c1sc2ccccc2c1-n1cccc1C(=O)C(=O)Nc1ccccc1 | 4.22%

Source: publication PMC4336329 (PLoS ONE, 2015)
